The test deals with T1, recombinant full-length human wild-type tau (tau 441, 2N4R), without additional tags (human, UniProt P10636-8 1-441).
T1 construct: microtubule-associated protein tau, human, longest isoform (tau 441, 2N4R, 441 amino acids), full length; subcloned from pRK5-EGFP-tau (Addgene) into pET-29b(+) by NdeI and EcoRI; Used as freshly prepared monomer (AUC, ThT assays) and, after 4 d with heparin and sonication, as preformed fibril seeds; also called WT tau; WT; source: E. coli BL21 (DE3), pET-29b, purified (boiling, SP Sepharose HP, …)
The test can be described thus: ThT seeding assay + TEM + FTIR; 5 μM tau monomer in 20 mM Tris buffer with 5% v/v sonicated preformed fibril seeds, 10 μM ThT, heparin at tau-to-heparin 4:1, 25 °C; monomer is the binder, seeds the target. To be noted: both partners purified.

B1: recombinant full-length human tau ΔK280 mutant (tau 441 with deletion of lysine 280), without additional tags (natural protein)
chain: not shown
notes: microtubule-associated protein tau, human, longest isoform (tau 441, 2N4R), full length, familial deletion of K280 made by site-directed mutagenesis; Used as freshly prepared monomer and as sonicated preformed fibril seeds; also called ΔK280 seeds; mutant seeds; source: E. coli BL21 (DE3), pET-29b, purified (boiling, SP Sepharose HP, Heparin HP)
With B1, the binding result is “binds”.

These data come from article PMC11849630, “Tau destabilization in a familial deletion mutant K280 accelerates its fibrillization and enhances the seeding effect” (The Journal of Biological Chemistry, 2025).
